The full ranking holds about 81,000 sequences; the median of “one-hybrid fitness for binding NBS DNA” is about -0.1, and the highest 2% start at about 0.36. The list shows a part of the results.
B1: Caulobacter ParB omega fusion; a variant is named by its letters at X, in order, B8GW30 (parent)
chain: MESVVVGEPGMSEGRRGLGRGLSALLGEVDAAPAQAPGEQLGGSREAPIEILQRNPDQPRRTFREEDLEDLSNSIREKGVLQPILVRPSPDTAGEYQIVAGERAWRAAQRAGLKTVPIMVRELDDLAVLEIGIIENVQRADLNVLEEALSYKVLMEKFERTQENIAQTIGKSXSHVANXMRLLXLPDEVQSYLVSGELTAXHARAIAAAADPVALAKQIIEGGLSVRETEALARKAPNLSAGKSKGGRPPRVKDTDTQALESDLSSVLGLDVSIDHRGSTGTLTITYATLEQLDDLCNRLTRGI

Variants of: B1
Assay: one-hybrid fitness for binding NBS DNA (the Noc-binding site; scaled: cognate 1, non-cognate 0); higher = stronger binding
Settings: with NBS DNA site
Procedure, shortened: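 Pre- and post-selection plasmids were Illumina-sequenced, three replicate libraries were pooled, and any variant with under 10 reads was removed. The libraries were Caulobacter ParB with four specificity codons randomised, selected in E. coli USO through a HIS3 reporter whose site is 19 bp from the promoter. Cells grew 48 hours at 37°C on M9 without histidine, with 0.1 mM IPTG and 5 mM 3-AT. Fitness is the log change in variant-to-wild-type read ratio, rescaled against cognate and non-cognate.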

Row | Variant | one-hybrid fitness for binding NBS DNA
1 | ENHE | ≤ 0.2
2 | SKDR | ≤ 0.2
3 | YTTA | ≤ 0.2
4 | IAMA | ≤ 0.2
5 | CDSG | ≤ 0.2
6 | GCEG | ≤ 0.2
7 | VCNT | ≤ 0.2
8 | SPQL | ≤ 0.2
9 | FKND | ≤ 0.2
10 | PMPT | ≤ 0.2
11 | QTGA | 0.466
12 | RAHR | 0.487
13 | RQGP | ≤ 0.2
14 | HYVM | ≤ 0.2
15 | THWY | ≤ 0.2
16 | QGGV | ≤ 0.2
17 | RLED | ≤ 0.2
18 | ENIC | ≤ 0.2
19 | RNRL | ≤ 0.2
20 | DTHR | ≤ 0.2
21 | GFIG | ≤ 0.2
22 | NSKC | ≤ 0.2
23 | HCTC | ≤ 0.2
24 | SVPQ | ≤ 0.2
25 | RVMA | ≤ 0.2

Row | Variant | one-hybrid fitness for binding NBS DNA
26 | RGQH | ≤ 0.2
27 | LIAV | ≤ 0.2
28 | LYMY | ≤ 0.2
29 | LNLH | ≤ 0.2
30 | VWST | ≤ 0.2
31 | SVWG | ≤ 0.2
32 | AFVD | ≤ 0.2
33 | HAFE | ≤ 0.2
34 | SGLI | ≤ 0.2
35 | QHDD | ≤ 0.2
36 | SLIF | ≤ 0.2
37 | THKQ | ≤ 0.2
38 | PWPI | ≤ 0.2
39 | PQMT | ≤ 0.2
40 | EEHL | ≤ 0.2
41 | SFCC | ≤ 0.2
42 | HNIT | ≤ 0.2
43 | WKRK | ≤ 0.2
44 | GAFC | ≤ 0.2
45 | GQGC | ≤ 0.2
46 | IKNY | ≤ 0.2
47 | PKPL | ≤ 0.2
48 | LHHL | ≤ 0.2
49 | IGKS | ≤ 0.2
50 | SNLL | ≤ 0.2

Row | Variant | one-hybrid fitness for binding NBS DNA
51 | MAPS | ≤ 0.2
52 | VPHR | ≤ 0.2
53 | RNYL | ≤ 0.2
54 | DTRF | ≤ 0.2
55 | CYHF | ≤ 0.2
56 | EGML | ≤ 0.2
57 | EPTY | ≤ 0.2
58 | GNRL | ≤ 0.2
59 | WIGR | ≤ 0.2
60 | SWIG | ≤ 0.2
61 | ATVV | ≤ 0.2
62 | YWWL | ≤ 0.2
63 | HCQF | ≤ 0.2
64 | ICSA | ≤ 0.2
65 | PINR | ≤ 0.2
66 | ERSD | ≤ 0.2
67 | GLAA | ≤ 0.2
68 | DLHC | ≤ 0.2
69 | GSII | ≤ 0.2
70 | YWFR | ≤ 0.2
71 | PSTE | ≤ 0.2
72 | GLVE | ≤ 0.2
73 | NVKR | ≤ 0.2
74 | NDRN | ≤ 0.2
75 | YMQK | ≤ 0.2

Row | Variant | one-hybrid fitness for binding NBS DNA
76 | KHNC | ≤ 0.2
77 | RIHR | 0.477
78 | CMNY | ≤ 0.2
79 | RHVT | ≤ 0.2
80 | GGES | ≤ 0.2
81 | KLVF | ≤ 0.2
82 | EMVM | ≤ 0.2
83 | QCHW | ≤ 0.2
84 | YMPC | ≤ 0.2
85 | DIVR | ≤ 0.2
86 | TKCR | ≤ 0.2
87 | EGVD | ≤ 0.2
88 | RYEC | ≤ 0.2
89 | EDYT | ≤ 0.2
90 | NYHP | ≤ 0.2
91 | VDLR | ≤ 0.2
92 | CHPA | ≤ 0.2
93 | IREP | ≤ 0.2
94 | RFKS | 0.444
95 | HFTW | ≤ 0.2
96 | DHYY | ≤ 0.2
97 | PVNY | ≤ 0.2
